Data taken from PubChem BioAssay AID720537 (National Center for Advancing Translational Sciences (NCATS), 2013).
The campaign covered roughly 1,600 compounds. About 55 (3%) were called active. This list was built around the results that the source calls inconclusive (neither active nor inactive); the mix of calls is not that of the screen. Calls come from the whole dose curve; as a rule, active = well fitted inhibition curve with a large enough effect; inconclusive = small, poorly fitted or top-dose-only effect; inactive = no such curve, though single readings can be large or run the other way. Potencies of inconclusive entries are left out as doubtful fits.

assay: qHTS for Inhibitors of TGF-b: Hit Validation in HepG2 Cells using COP promoter; conditions: HepG2 COP-GFP TGF-b reporter, GFP fluorescence, 18 h, cells stimulated by added recombinant TGF-beta; activity, negative = inhibition: at 46.1 µM (top of the series); note: nearly all actives have a fitted effect of over 70% in size
Description: TGF-b is a main component in the TGF-b signaling pathway which plays diverse roles in cellular and development pathways. TGF-b is the mediated by the transcription factors Smads. Although the Smad-dependent pathway is the primary canonical TGF-b signaling node, TGF-b1 can also activate alternative signaling pathways, including those involving MAPK (ERK, JNK and p38). This interaction may mediate or enhance Smad-dependent responses, or can exert Smad-independent effects. The complexity of this signaling cascade allows the TGF-b superfamily to perform unique, overlapping or redundant functions. We believe that targeting the TGF-beta pathway at the Smad-transcription factor level may eliminate the consequences of disrupting the entire pathway and offer specificity without affecting other signaling pathways. Smad3 is the primary transducer of TGF-b's signals and Smad3 regulates many functions attributed to TGF-b signaling. We hypothesize that Smad3 inhibitors will selectively eliminate Smad3-specific TGF-beta signals without undesired off-target effects. We aim to identify Smad3-small molecule antagonists using a quantitative high throughput screening (qHTS) approach. A high-throughput assay was developed to screen the NIH Molecular Libraries Small Molecule Repository (MLSMR). This is a cell based assay, where TGF-b is tagged with GFP. This assays tests the hits identified from the primary screen in HepG2 cells, but using a cop promoter rather than a caga promoter. True actives from the primary screen will also be active in this assay. NIH Chemical Genomics Center [NCGC] NIH Molecular Libraries Probe Centers Network [MLPCN] MLPCN Grant: MH087449 Assay Submitter (PI): Sushil Rane, National Institute of Diabetes and Kidney Diseases
Suspensions of trypsinized HEPG2 COP-GFP cells were dispensed into white, tissue culture-treated, solid 1536-well plates at 5uL/well (1000 cells/well final concentration) in DMEM medium supplemented with 1% FBS. Plates were incubated at 37 degrees C for 2 hours, after which 23 nL of compounds or DMSO were delivered to each well using a pin tool. One uL of recombinant TGF-beta in DMEM (1% FBS) was then dispensed (500 pg/mL final concentration), and plates were incubated at 37 degrees C for 18 hours. The plates were measured on an Acumen eX3 Explorer plate reader for GFP fluorescence (ex488/em500-530). GFP values were calculated by determining the mean GFP fluorescence of individual cells, and compiling these values for each well to determine a total well GFP signal. The %Activity was determined from the corrected fluorescence values. A titration of the known TGF-B inhibitor SB431542 was included to monitor plate performance, while unstimulated HEPG2 (-TGF-B) control wells were used to normalize %Activity of identified inhibitors; unstimulated wells corresponded to 100%Activity (full inhibition), while stimulated cell controls (+DMSO) were used to normalize 0%Activity (no inhibition). Concentration-response curves were fitted to the signals arising from the resulting fluorescence. The concentration-effect curves were then classified based on curve quality (r2), response magnitude and degree of measured activity, and compounds were subsequently categorized based on their curve class.
Potency is the fitted concentration of half-maximal effect; tags give direction and shape of the fitted curve.

Row | Structure (SMILES) | Potency | activity, negative = inhibition
1 | Cc1cc(C)nc(S/C=C/C(=O)c2ccccc2F)n1 | inconclusive [inhibitor, single point] | –
2 | O=C(c1ccc(Cl)cc1)C(CN1CCCCC1)c1ccccc1 (stereo not given) | inconclusive [inhibitor, single point] | –
3 | CC(NC1=CC(=O)c2cccnc2C1=O)C(O)c1ccccc1 (stereo not given) | active: 13 µM | –
4 | COc1cc(OC)cc(-c2c(-c3cccs3)c3cc(-c4cnc(OC)nc4)ccc3n2C)c1 | – | inactive: -18.5%
5 | COc1ccc2cc(CNCCOCCOCCNCc3ccc4cc(OC)ccc4c3)ccc2c1 | inconclusive [inhibitor, single point] | –
6 | CC(C)C[C@@H](CN1CCC[C@@H]1CN1C(=S)NC[C@@H]1Cc1ccc(O)cc1)N1C[C@H](Cc2ccc(O)cc2)N(CC2CCCCC2)C1=S | inconclusive [inhibitor, single point] | –
7 | Cn1c(/C=C/c2ccc([N+](=O)[O-])o2)nc2ccccc2c1=O | inconclusive [inhibitor, single point] | –
8 | CCOc1ccc(C(CN2CCOCC2)C(C)=O)cc1OC (stereo not given) | inconclusive [inhibitor, single point] | –
9 | Cc1cc(C)nc(/N=C(\N)Nc2ccc(SC(F)F)cc2)n1 | – | inactive: 27.5%
10 | CN(C)CC(C(=O)c1ccccc1)c1ccccc1 (stereo not given) | inconclusive [inhibitor, single point] | –
11 | CCOc1ccccc1NC(=O)c1nc(S(=O)(=O)Cc2ccccc2)ncc1Cl | active: 7.31 µM | –
12 | CN(c1ccccc1)S(=O)(=O)c1ccc(NC(=O)c2nc(S(C)(=O)=O)ncc2Cl)cc1 | active: 6.51 µM | –
13 | O=[N+]([O-])c1cccc2c(N3CCCC3)ccnc12 | inconclusive [inhibitor, single point] | –
14 | NC(c1csc(NC(=O)Nc2ccc(OC(F)(F)F)cc2)n1)C1CCCCC1 (stereo not given) | inconclusive [inhibitor, single point] | –
15 | Cc1ccccc1CS(=O)(=O)c1ncc(Cl)c(C(=O)Nc2ccc(F)cc2)n1 | inconclusive [inhibitor, single point] | –
16 | COc1ccc(CNC(=O)c2c(C)oc3c2C(=O)c2ccccc2C3=O)cc1 | active: 2.06 µM | –
17 | O=C1C(Nc2ccc(O)cc2)=C/C(=N/S(=O)(=O)c2cccs2)c2ccccc21 | active: 1.03 µM | –
18 | COc1cc(/C=C/C(=O)c2ccc([N+](=O)[O-])o2)ccc1O | inconclusive [inhibitor, single point] | –

Row | Structure (SMILES) | Potency | activity, negative = inhibition
19 | O=[N+]([O-])c1cc2no[n+]([O-])c2cc1N1CCCCC1 | inconclusive [inhibitor, single point] | –
20 | CCN1CCN(c2ccc(S(=O)(=O)N3CCCCC3)cc2NC(=O)c2ccc([N+](=O)[O-])s2)CC1 | inconclusive [inhibitor, single point] | –
21 | COc1ccc(S(=O)(=O)/N=C2\C=C(Nc3ccc(O)cc3)C(=O)c3ccccc32)cc1 | inconclusive [inhibitor, full curve] | –
22 | COc1cc2c(c(OC)c1OC)-c1ccc(OC)c(=O)cc1C(NC(=O)c1ccccc1)CC2 (stereo not given) | inconclusive [inhibitor, single point] | –
23 | COc1ccc(OC)c(NC(=O)c2nc(S(=O)(=O)Cc3ccccc3)ncc2Cl)c1 | active: 10.3 µM | –
24 | CC(NCC(O)COCCC12CC3CC(CC(C3)C1)C2)c1ccccc1 (stereo not given) | inconclusive [inhibitor, single point] | –
25 | Cc1ccc(NC(=O)c2cc3c(s2)CCCC3)cc1S(=O)(=O)Nc1ccccc1Cl | – | inactive: 56.4%
26 | OCCCn1c(CCCNc2nc(-c3cccc(Br)c3)cs2)nc2cc(Cl)c(N3CCCCC3)cc21 | – | inactive: 36.7%
27 | COc1ccc(C)c2sc(N(CCCN(C)C)C(=O)c3ccc(S(=O)(=O)N4CCc5ccccc5C4)cc3)nc12 | inconclusive [inhibitor, partial curve] | –
28 | CN=c1sc2c(n1C)C(=O)c1ccccc1C2=O | active: 4.61 µM | –
29 | NC(Cc1ccc(C(F)(F)F)cc1)c1csc(NC(=O)Nc2ccccc2Cc2ccccc2)n1 (stereo not given) | inconclusive [inhibitor, single point] | –
30 | O=C(Nc1ccc([N+](=O)[O-])cc1)Nc1ccc(OC(F)F)c(Cl)c1 | inconclusive [inhibitor, single point] | –
31 | COc1ccccc1-c1cc(C(F)(F)F)nc(S(=O)(=O)CCCC(=O)N2CCCCC2C)n1 (stereo not given) | inconclusive [inhibitor, single point] | –
32 | CC(=O)Nc1cc(OC(C)=O)c2nonc2c1OC(C)=O | active: 9.2 µM | –
33 | COc1ccc2[nH]c3c(C)c4ccncc4c(C)c3c2c1 | inconclusive [inhibitor, single point] | –
34 | COc1ccc(C(=O)Nc2ccc(C)c(S(=O)(=O)N3CCOCC3)c2)cc1S(=O)(=O)N1CCCC1 | – | inactive: 1.85%
35 | COc1ccc(CNC(=O)[C@@H]2CCCN2C(=O)[C@@H]2Cc3ccccc3CN2C(=O)OC(C)(C)C)cc1 | – | inactive: -6.2%
